In all, about 410,000 compounds went through this assay and about 6,400 (1.6%) were called active. Inconclusive results, whose numbers are uncertain, are shown with a selection of clear calls. Calls follow the shape of the dose curve; as a rule, active = well fitted inhibition curve with a large enough effect; inconclusive = small, poorly fitted or top-dose-only effect; inactive = no such curve, though single readings can be large or run the other way. No potency is given beside an inconclusive call; the fits are too rough.
target: Glucagon-like peptide 1 receptor (Homo sapiens) (UniProt P43220); test: qHTS of GLP-1 Receptor Inverse Agonists (Inhibition Mode); conditions: HEK293 GLP-1R CRE-luciferase, luminescence, 24 h, GLP-1R form is constitutively active; activity change, negative = inhibition: at 38.3 µM (top of the series) unless noted; also: nearly all actives have a fitted effect of over 55% in size
Sequence of UniProt P43220 (P43220 whole entry, looked up): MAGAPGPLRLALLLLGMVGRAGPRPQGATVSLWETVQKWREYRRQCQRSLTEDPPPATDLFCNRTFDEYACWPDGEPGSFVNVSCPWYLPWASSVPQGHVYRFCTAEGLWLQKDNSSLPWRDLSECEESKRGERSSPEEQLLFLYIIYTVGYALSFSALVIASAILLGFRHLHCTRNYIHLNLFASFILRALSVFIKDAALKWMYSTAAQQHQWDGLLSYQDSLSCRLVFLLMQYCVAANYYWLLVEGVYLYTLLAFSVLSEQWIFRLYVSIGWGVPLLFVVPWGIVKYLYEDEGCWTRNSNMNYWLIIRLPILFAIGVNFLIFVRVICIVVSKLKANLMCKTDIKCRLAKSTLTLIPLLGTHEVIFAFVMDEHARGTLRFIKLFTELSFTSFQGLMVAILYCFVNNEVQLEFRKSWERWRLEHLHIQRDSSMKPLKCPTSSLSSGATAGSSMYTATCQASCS
Procedure, shortened: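 Stable HEK293 clone (constitutively active GLP-1R + cAMP-response luciferase); 200 cells/uL plated, 12 h pre-culture, compound 24 hr, 37 deg C/5% CO2; detection reagent 12 min RT; luminescence.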
% is scaled to controls: 0 for no effect and ±100 for the full control effect; potency is read from the fitted curve at half-maximal effect; tags tell the direction and shape of the fitted curve.

SMILES | activity change, negative = inhibition | Potency
Cc1cccc2c1N(Cc1ccccc1OCCC(C)C)C(=O)C2=O | inactive: 6.94% | 
C(=N\Nc1nc2ccccc2s1)/c1cccs1 |  | inconclusive [inhibitor, single point]
O=c1cc(-c2ccccc2)cc(-c2ccccc2)n1O |  | inconclusive [inhibitor, partial curve, poor fit]
COc1cccc(N=NC2C(=O)N(C(N)=S)N=C2C)c1 (stereo not drawn) |  | inconclusive [inhibitor, full curve, poor fit]
CC1CCCC(NC(=O)C2COc3ccccc3O2)C1C (stereo not drawn) |  | inconclusive [inhibitor, partial curve, poor fit]
CN1C2CCC1/C(=C\c1ccccc1)C(=O)/C2=C\c1ccccc1 |  | inconclusive [inhibitor, single point]
CCCCSc1nnc2n(-c3ccc(OC)cc3)c(=O)c3c4c(sc3n12)COC(C(C)C)C4 (stereo not drawn) | inactive: 8.81% | 
Cc1ccc(S(=O)(=O)N2CCCN(C(=O)OC(C)(C)C)CC2)cc1 |  | inconclusive [inhibitor, single point]
CN(CC(=O)NCc1ccc(F)cc1)Cc1cccc(Cl)c1 |  | inconclusive [inhibitor, partial curve, poor fit]
CC(C)CN(C(=O)CCC(=O)OCc1ccc(Cl)cc1Cl)c1c(N)n(CC(C)C)c(=O)[nH]c1=O |  | inconclusive [inhibitor, single point]
COc1cc(OC)cc(C(=O)NCC(=O)OCC(=O)c2cc(C)n(Cc3ccco3)c2C)c1 | inactive: -6.77% | 
CCOCCn1c(-c2ccccc2)nc2ccccc21 |  | inconclusive [inhibitor, partial curve]
CCn1c(NCc2c[nH]c3ccccc23)nc2ccccc21 |  | inconclusive [inhibitor, single point]
CCOC(=O)c1cc(S(=O)(=O)Nc2cc(F)ccc2C)[nH]n1 | inactive: 11.8% | 
CCOc1ccc(S(=O)(=O)N2c3ccccc3CC2C)cc1 (stereo not drawn) |  | inconclusive [inhibitor, single point]
Cc1cccc(C)c1-n1nnnc1C(c1cccc2ccccc12)N1CCN(C/C=C/c2ccccc2)CC1 (stereo not drawn) |  | inconclusive [inhibitor, partial curve, poor fit]
Fc1ccccc1/C=N/N1CCN(Cc2ccccc2Cl)CC1 |  | inconclusive [inhibitor, single point]
CCOC(=O)Cc1csc(NC(=S)NC(=O)CC(C)C)n1 | inactive: -15.1% | 
CCOC(=O)N1CCc2c(sc3c2C(=O)NC(c2cc(OC)c(OC)c(OC)c2)N3)C1 (stereo not drawn) | inactive: -25.7% | 
Cc1ccc(-c2nnc(SCC(=O)Nc3ccccc3F)o2)cc1 |  | active: 2.24 µM
CCN(CC)c1ccc(C(=O)NC(=S)N2CCN(Cc3ccc4c(c3)OCO4)CC2)cc1 |  | active: 10 µM

SMILES | activity change, negative = inhibition | Potency
Cc1ccc(S(=O)(=O)N[C@H](C(=O)OCC(=O)N2N=C(c3ccc(Cl)cc3)CC2c2ccco2)C(C)C)cc1 (stereo partly drawn) |  | inconclusive [inhibitor, partial curve, poor fit]
COc1ccc(-c2csc(Nc3cccc(C)n3)n2)cc1OC |  | inconclusive [inhibitor, single point]
CCCCNC(=S)Nc1ccccc1Cc1ccccc1 |  | active: 11.2 µM
COc1ccc(NC(C)C(=O)Nc2ccc(C(C)(C)C)cc2)cc1Cl (stereo not drawn) |  | active: 4.47 µM
COc1ccc(C2N=C(N)Nc3nc4ccccc4n32)cc1 (stereo not drawn) | inactive: 4.39% | 
CSc1ccc(C(=O)C2CCCN(C(=O)c3cccc(N4CCOCC4)c3)C2)cc1 (stereo not drawn) |  | inconclusive [inhibitor, single point]
O=C(CN(c1ccc(Cl)c(C(F)(F)F)c1)S(=O)(=O)c1ccccc1)N1CCOCC1 |  | inconclusive [inhibitor, single point]
O=C(Nc1ccc2c(c1)CCCN2C(=O)c1cccs1)c1c(F)cccc1Cl |  | inconclusive [inhibitor, full curve, poor fit]
c1c2c(cc3sc(N4CCOCC4)nc13)OCO2 |  | inconclusive [inhibitor, partial curve, poor fit]
CCCCCCCCN1C(=O)[C@H](CC(=O)NCc2ccccc2)C[C@@]2(C(=O)OCC)CCC=C12 |  | inconclusive [inhibitor, partial curve, poor fit]
COc1ccccc1OCC(=O)NNc1c2ccccc2nc2ccccc12 |  | inconclusive [inhibitor, partial curve, poor fit]
Cc1onc(-c2ccccc2Cl)c1C(=O)Nc1nnc(Cc2ccc(Cl)cc2)s1 |  | inconclusive [inhibitor, single point]
Cc1cccc(NC(=O)c2ccc(C3SCC(=O)N3CCc3ccccc3)cc2)c1 (stereo not drawn) |  | inconclusive [inhibitor, single point]
Cc1ccc(NC(=O)CC2S/C(=N/N=C3\CCCc4ccccc43)NC2=O)cc1 (stereo not drawn) |  | inconclusive [inhibitor, partial curve, poor fit]
CC1CCN(S(=O)(=O)c2ccc3c(ccc(=O)n3CC(=O)Nc3cccc(F)c3)c2)CC1 | inactive: 8.08% | 
CCCCOCCCNC(=O)C[C@@H]1C[C@@]2(C(=O)OC)CCCCC=C2N(Cc2ccc3c(c2)OCO3)C1=O |  | inconclusive [inhibitor, partial curve, poor fit]
OCC1(Cc2cccc(Cl)c2)CCCN(Cc2cn[nH]c2C2CCCCC2)C1 (stereo not drawn) |  | inconclusive [inhibitor, single point]
CCCCCCNCC(=O)N1CCC(Cc2ccccc2)CC1 |  | inconclusive [inhibitor, partial curve, poor fit]
CCN(Cc1ccccc1)S(=O)(=O)c1ccc(C(=O)Nc2nnc(-c3ccccc3OC)o2)cc1 |  | inconclusive [inhibitor, partial curve, poor fit]
Cc1ccc(NC(=O)c2cc(S(=O)(=O)NCCc3ccc(Cl)cc3)ccc2F)cc1 |  | active: 11.2 µM
O=C(Nc1ccc2c(c1)OCCO2)C(CCc1ccccc1)N1CCN(C/C=C/c2ccccc2)CC1 (stereo not drawn) |  | inconclusive [inhibitor, single point]

SMILES | activity change, negative = inhibition | Potency
COc1ccc(Cn2c(SCC(=O)N(C)Cc3ccccc3)nc3ccccc32)cc1 |  | inconclusive [inhibitor, single point]
Cc1ccccc1NC(=O)CCCSc1nc2ccccc2s1 |  | inconclusive [inhibitor, single point]
COc1ccc(Br)cc1CN(C)C(=O)c1ccccc1OCc1c(C)noc1C |  | inconclusive [inhibitor, single point]
COc1ccc(CCNc2ncnc3c2cnn3-c2cc(Cl)ccc2C)cc1 |  | inconclusive [inhibitor, single point]
Cc1c(NC(=O)CSc2nnnn2-c2ccc(C(=O)O)cc2)c(=O)n(-c2ccccc2)n1C | inactive: 39% | 
COc1ccc(S(=O)(=O)N2CCOCC2)cc1NC(=O)CN1CCCc2ccccc21 |  | inconclusive [inhibitor, single point]
O=C(CNS(=O)(=O)c1cccc(Br)c1)NCC1CCCCC1 |  | inconclusive [inhibitor, partial curve, poor fit]
CCOc1ccc(NS(=O)(=O)c2ccc3c(c2)CCCN3C(=O)C2CCC2)cc1 |  | inconclusive [inhibitor, partial curve, poor fit]
CC(Oc1cccc2ccccc12)C(=O)N/N=C/c1cccnc1 (stereo not drawn) |  | inconclusive [inhibitor, single point]
COc1ccc(NCc2cccn2-c2nnc(N3CCCCC3)s2)cc1OC | inactive: -16.5% | 
Cc1cc(C)c(NC(=O)C2CCN(c3nn4c(=O)cc(C)nc4s3)CC2)c(C)c1 | inactive: -0.34% | 
O=C(CSc1nc2c([nH]c3ccccc32)c(=O)n1-c1ccc(Cl)cc1)c1ccccc1 | inactive: 3.64% | 
CNC(=S)N/N=C/c1ccc(-c2cccc(C(=O)O)c2)o1 |  | inconclusive [inhibitor, single point]
NC(N)=N/N=C/c1ccccc1Cl |  | inconclusive [inhibitor, single point]
Cc1ccc(CN2CCN(/N=C/c3sccc3C)CC2)c(C)c1 |  | inconclusive [inhibitor, single point]
CC(C)(O)C#Cc1ccc(C(=O)N2CCN(c3ccc(Cl)cc3)CC2)cc1 |  | inconclusive [inhibitor, single point]
CCS(=O)(=O)Nc1cccc(C2=NN(S(=O)(=O)c3ccccc3)C(c3cccs3)C2)c1 (stereo not drawn) |  | inconclusive [inhibitor, partial curve, poor fit]
C#CCOCCOCCOCCNc1nc(N2CCN(C(=O)CCCCCCCCCCNC(=O)[C@@H](CCC(=O)O)n3cc(CCCCCN)nn3)CC2)nc(N2CCN(C(=O)CCCCCCCCCCNC(=O)[C@H](CCCCN)n3cc(C[C@@H](C)CC)nn3)CC2)n1 |  | inconclusive [inhibitor, partial curve, poor fit]
Cc1onc(-c2ccccc2Cl)c1C(=O)Nc1nnc(-c2cccc([N+](=O)[O-])c2)s1 |  | inconclusive [inhibitor, partial curve, poor fit]
Cc1ccc2c(c1)C(c1ccccc1)N(C(=O)c1c(F)cccc1Cl)CC(=O)N2 (stereo not drawn) |  | inconclusive [inhibitor, partial curve, poor fit]
Cc1ccc([N+](=O)[O-])cc1S(=O)(=O)Nc1ccc(-c2ccc(N3CCCC3)nn2)cc1 |  | inconclusive [inhibitor, single point]
